Measurements reported in article PMC4656213, “Structural basis for inhibition of the Tob-CNOT7 interaction by a fragment screening approach” (Protein & Cell, 2015).
No constants are given. Whether binding was seen depends on the method and setting. For some of these results: In cells and extracts the contact can be indirect. Some entries that bind do so weakly or less than the wild type.

Protein sequences, listed by entry. Tags and fused reporters are not part of them. Lines headed by an entry give the natural chain unless they say otherwise; changes in a name come on top. Chains listed by the source or under a name are the forms on record and can include a tag or linker. Residues count along the entry.
UniProt Q9UIV1: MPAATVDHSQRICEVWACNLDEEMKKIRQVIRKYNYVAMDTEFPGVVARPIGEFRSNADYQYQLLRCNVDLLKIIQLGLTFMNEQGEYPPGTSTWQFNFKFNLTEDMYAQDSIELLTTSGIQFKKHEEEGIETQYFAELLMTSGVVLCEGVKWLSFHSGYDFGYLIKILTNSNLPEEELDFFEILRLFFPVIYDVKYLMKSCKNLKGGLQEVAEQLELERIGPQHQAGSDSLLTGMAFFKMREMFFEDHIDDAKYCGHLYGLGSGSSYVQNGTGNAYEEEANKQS
recombinant GST tagged CNOT7: residues 11-262 of Q9UIV1

T1: Tob immobilised on the CM5 sensor chip (SPR screening) (human) (UniProt P50616)
T1 sequence: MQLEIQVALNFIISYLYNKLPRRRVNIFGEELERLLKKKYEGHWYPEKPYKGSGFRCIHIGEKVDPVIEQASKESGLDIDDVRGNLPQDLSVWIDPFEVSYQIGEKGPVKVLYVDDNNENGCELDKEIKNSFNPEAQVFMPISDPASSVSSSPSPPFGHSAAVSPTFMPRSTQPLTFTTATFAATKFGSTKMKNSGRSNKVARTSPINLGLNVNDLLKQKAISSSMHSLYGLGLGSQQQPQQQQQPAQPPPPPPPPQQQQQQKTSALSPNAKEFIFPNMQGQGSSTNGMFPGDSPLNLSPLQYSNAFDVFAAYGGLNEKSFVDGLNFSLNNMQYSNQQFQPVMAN


Columns and labels:
[1] = biological target: T1, Tob immobilised on the CM5 sensor chip (SPR screening) (human); assay: SPR; Biacore, Tob on the CM5 sensor chip; CNOT7 injected alone or mixed with fragment compounds (competitive screening); buffer with 5% DMSO; both purified
Flag-CNOT7 = Flag-CNOT7 (UniProt Q9UIV1); assay: co-IP; Cos7 cells transfected with Tob expression vector (WT, K63A or W93A) with control or Flag-CNOT7 vector; lysates immunoprecipitated with anti-Flag antibody, immunoblot
[2] = biological target: recombinant GST tagged CNOT7 (UniProt Q9UIV1); assay: pull-down; GST pull-down with recombinant GST tagged CNOT7 and TobN138 (wild type, K63A, D95A); GST as negative control; both purified

Molecule	binding (Flag-CNOT7)	binding [2]	other results
CNOT7 (recombinant, used in SPR, ITC and the deadenylase assay) (from UniProt Q9UIV1 11-262) (enzyme)			binding [1]: binds
Tob wild type (expression vector in Cos7 cells) (protein, UniProt P50616 1-345) MQLEIQVALNFIISYLYNKLPRRRVNIFGEELERLLKKKYEGHWYPEKPYKGSGFRCIHIGEKVDPVIEQASKESGLDIDDVRGNLPQDLSVWIDPFEVSYQIGEKGPVKVLYVDDNNENGCELDKEIKNSFNPEAQVFMPISDPASSVSSSPSPPFGHSAAVSPTFMPRSTQPLTFTTATFAATKFGSTKMKNSGRSNKVARTSPINLGLNVNDLLKQKAISSSMHSLYGLGLGSQQQPQQQQQPAQPPPPPPPPQQQQQQKTSALSPNAKEFIFPNMQGQGSSTNGMFPGDSPLNLSPLQYSNAFDVFAAYGGLNEKSFVDGLNFSLNNMQYSNQQFQPVMAN	binds		
Tob K63A mutant (expression vector in Cos7 cells) (protein, UniProt P50616 1-345) MQLEIQVALNFIISYLYNKLPRRRVNIFGEELERLLKKKYEGHWYPEKPYKGSGFRCIHIGEAVDPVIEQASKESGLDIDDVRGNLPQDLSVWIDPFEVSYQIGEKGPVKVLYVDDNNENGCELDKEIKNSFNPEAQVFMPISDPASSVSSSPSPPFGHSAAVSPTFMPRSTQPLTFTTATFAATKFGSTKMKNSGRSNKVARTSPINLGLNVNDLLKQKAISSSMHSLYGLGLGSQQQPQQQQQPAQPPPPPPPPQQQQQQKTSALSPNAKEFIFPNMQGQGSSTNGMFPGDSPLNLSPLQYSNAFDVFAAYGGLNEKSFVDGLNFSLNNMQYSNQQFQPVMAN	binds		
Tob W93A mutant (expression vector in Cos7 cells) (protein, UniProt P50616 1-345) MQLEIQVALNFIISYLYNKLPRRRVNIFGEELERLLKKKYEGHWYPEKPYKGSGFRCIHIGEKVDPVIEQASKESGLDIDDVRGNLPQDLSVAIDPFEVSYQIGEKGPVKVLYVDDNNENGCELDKEIKNSFNPEAQVFMPISDPASSVSSSPSPPFGHSAAVSPTFMPRSTQPLTFTTATFAATKFGSTKMKNSGRSNKVARTSPINLGLNVNDLLKQKAISSSMHSLYGLGLGSQQQPQQQQQPAQPPPPPPPPQQQQQQKTSALSPNAKEFIFPNMQGQGSSTNGMFPGDSPLNLSPLQYSNAFDVFAAYGGLNEKSFVDGLNFSLNNMQYSNQQFQPVMAN	no binding		
human Tob residues 1-138 (TobN138), wild type (domain or fragment, UniProt P50616 1-138, looked up, Tob (Tob1), human, residues 1-138, containing the Box A and Box B motifs; Cloned into pGEX-6P-1 via BamHI and XhoI; A second preparation (His6-SUMO, pET-28b, Rosetta2) was made for the SPR screening; also called Tob1; TobN138 WT) MQLEIQVALNFIISYLYNKLPRRRVNIFGEELERLLKKKYEGHWYPEKPYKGSGFRCIHIGEKVDPVIEQASKESGLDIDDVRGNLPQDLSVWIDPFEVSYQIGEKGPVKVLYVDDNNENGCELDKEIKNSFNPEAQV		binds	
TobN138 D95A mutant (domain or fragment, UniProt P50616 1-138) MQLEIQVALNFIISYLYNKLPRRRVNIFGEELERLLKKKYEGHWYPEKPYKGSGFRCIHIGEKVDPVIEQASKESGLDIDDVRGNLPQDLSVWIAPFEVSYQIGEKGPVKVLYVDDNNENGCELDKEIKNSFNPEAQV		no binding	
TobN138 K63A mutant (domain or fragment, human, UniProt P50616 1-138, looked up, Tob (Tob1), human, residues 1-138, with the point mutation K63A; Made by PCR mutagenesis with the human TobN138 expression plasmid as template; source: E. coli BL21 (DE3), purified following the protocol for wild-type Tob) MQLEIQVALNFIISYLYNKLPRRRVNIFGEELERLLKKKYEGHWYPEKPYKGSGFRCIHIGEAVDPVIEQASKESGLDIDDVRGNLPQDLSVWIDPFEVSYQIGEKGPVKVLYVDDNNENGCELDKEIKNSFNPEAQV		binds	
